For 137 sequences, binding signal (log2 normalized fluorescence) results are on record in paper PMC5515408.

This is one part of the list. At the low end of the ranking, values are background and their order means little.

The test system of this assay is MYC (p64) + MAX (p21), in MYC:MAX. Description: protein-binding microarray (anti-MAX antibody). Particulars: PBM: 15 mM Tris-HCl pH 7.5, 100 mM KCl, 0.075% NP40, 7.5 mM beta-mercaptoethanol, 375 ng/ul BSA, 8 ng/ul poly(dA-dT):(dA-dT), 550 ng complex, 60 min, room …; high values mean tight binding; double strand, one strand shown; sequences stand for … in CCGGC…TTAATAGCTAAGATTACTATATCGACG
For TGAAACTTGGTA, the binding signal (log2 normalized fluorescence) amounted to 0.122. Then TGACACGTGAAC, with 0.796; and TGAGTGTGTGTA, with 0.288.

As to TGACCGAACGTA, the binding signal (log2 normalized fluorescence) came to 0.0701.

As to TGAAGAAAGGTA, the binding signal (log2 normalized fluorescence) is -0.0249. With TGAGCAATGGTA, the binding signal (log2 normalized fluorescence) was 0.0874. Take TGAAAAGAAGTA: the binding signal (log2 normalized fluorescence) was -0.0867. As for TGATCTCTCGTA, the binding signal (log2 normalized fluorescence) was -0.0577.

TGACAGCACGTA: the binding signal (log2 normalized fluorescence) turned out to be 0.347. Take TGAGCATTCGTA: the binding signal (log2 normalized fluorescence) worked out at 0.202. TGAGTGAGCGTA: the binding signal (log2 normalized fluorescence) stood at 0.1. On to TGTTCCGTGGTA, for which the binding signal (log2 normalized fluorescence) is 0.0711. As to TGACACTCTGTA, the binding signal (log2 normalized fluorescence) is 0.324. In the case of TGAGGCTGGGTA, the binding signal (log2 normalized fluorescence) was -0.084. Take TGAACCGCCGTA: the binding signal (log2 normalized fluorescence) is 0.159. For TGACTATCTGTA, the binding signal (log2 normalized fluorescence) is -0.0337. Then TGACACGTTACA, with 0.638; and TGACCCGTGATA, with 0.296.

TGAGGCAACGTA: the binding signal (log2 normalized fluorescence) is 0.158. Regarding TGATTCAGAGTA, the binding signal (log2 normalized fluorescence) was -0.205.

Take TGAGGTACTGTA: the binding signal (log2 normalized fluorescence) came out at 0.0886. Regarding TGATAGGAGGTA, the binding signal (log2 normalized fluorescence) was 0.0395.

For TGATCATTGGTA, the binding signal (log2 normalized fluorescence) was found to be 0.118. For AGACGCGGGGTA, the binding signal (log2 normalized fluorescence) was determined as 0.45.

TGACTTCGAGTA: the binding signal (log2 normalized fluorescence) was 0.00134. For TGAGCGTCGGTA, the binding signal (log2 normalized fluorescence) was found to be 0.0251.

For the sequence TGACCCAATGTA, the binding signal (log2 normalized fluorescence) is 0.162.

As for ATCAGGGAATAG, the binding signal (log2 normalized fluorescence) turned out to be 0.206. Take TGAGTTATTGTA: the binding signal (log2 normalized fluorescence) is -0.0326. Then TGAAATAGAGTA, with -0.108; and TGACCTTGGGTA, with -0.061. Then TGACTCGACGTA, with 0.109. Under TGAGTATTAGTA stands -0.245; under TGACGTTCAGTA, 0.00286. Regarding TGAATTGTCGTA, the binding signal (log2 normalized fluorescence) was -0.103.

Take TGAATTAACGTA: the binding signal (log2 normalized fluorescence) stood at 0.0806. Take TGACTGGTAGTA: the binding signal (log2 normalized fluorescence) is 0.0415. As to TGAGGAAGTGTA, the binding signal (log2 normalized fluorescence) amounted to 0.0705.

TGATCTATCGTA: the binding signal (log2 normalized fluorescence) is -0.0691.

As for TGACTGGACGTA, the binding signal (log2 normalized fluorescence) amounted to 0.0994.

In the case of TGAGCTGTGGTA, the binding signal (log2 normalized fluorescence) was found to be 0.023. On to TGATACAAGGTA, for which the binding signal (log2 normalized fluorescence) turned out to be 0.262. TGTCGCGTCGTA: the binding signal (log2 normalized fluorescence) was found to be 0.0696.

Take TGAGTTACCGTA: the binding signal (log2 normalized fluorescence) is 0.0965. Consider TGACAGCGCGTA, for which the binding signal (log2 normalized fluorescence) was found to be 0.335. For the sequence TGAGAAATGGTA, the binding signal (log2 normalized fluorescence) was 0.107. Consider TGAAAGGTTGTA, for which the binding signal (log2 normalized fluorescence) stood at 0.148. Regarding TGAGTTAACGTA, the binding signal (log2 normalized fluorescence) is 0.199. CCGCCAAAGCAT: the binding signal (log2 normalized fluorescence) stood at 0.0505.

Turning to TGATCACCCGTA, the binding signal (log2 normalized fluorescence) turned out to be 0.323.

For TGATATCCTGTA, the binding signal (log2 normalized fluorescence) was -0.145. Under TGAATTGGCGTA stands -0.0447; under TGAGAACTCGTA, 0.0801; under TGACGCAAGGTA, 0.403. In the case of TGACGATTAGTA, the binding signal (log2 normalized fluorescence) is -0.114. Then TGATCGGGTGTA, with -0.0626; and AGACACATGGTA, with 0.834. Under TGACAATGTGTA stands 0.306; under TGAGGAGAGGTA, -0.114; under TGGCCCGGGGTA, -0.135. As to TGACGAGCGGTA, the binding signal (log2 normalized fluorescence) came out at 0.129. Consider TGAACGGTTGTA, for which the binding signal (log2 normalized fluorescence) was 0.123. Take TGAGGAACGGTA: the binding signal (log2 normalized fluorescence) was 0.0489. Under TGAAAAGGTGTA stands -0.0366; under TGATATTCCGTA, -0.277; under TGACCACGAGTA, 0.396.

On to TGACGGGTCGTA, for which the binding signal (log2 normalized fluorescence) was -0.0876.

For TGACTACACGTA, the binding signal (log2 normalized fluorescence) was 0.312. With TGATGTGTAGTA, the binding signal (log2 normalized fluorescence) was found to be 0.146.

Turning to TGAGTTCTCGTA, the binding signal (log2 normalized fluorescence) was -0.0697. For the sequence TGAGCCAAGGTA, the binding signal (log2 normalized fluorescence) was -0.0677. For the sequence TGACTACGGGTA, the binding signal (log2 normalized fluorescence) is 0.0808. In the case of TGACACCGAGTA, the binding signal (log2 normalized fluorescence) is 0.235. Under TGACGGAGTGTA stands 0.165. In the case of TGGGCACCCATT, the binding signal (log2 normalized fluorescence) came to 0.0703. For the sequence TGAGGCCCCGTA, the binding signal (log2 normalized fluorescence) came out at 0.00137. Under TGACACGTGTGT stands 0.7; under TGAACGGTAGTA, -0.0533. As for AATACAGCTTAC, the binding signal (log2 normalized fluorescence) was 0.307.

On to TGACAACACGTA, for which the binding signal (log2 normalized fluorescence) worked out at 0.272. Then TGACGACTCGTA, with 0.0913. In the case of TGAGCCACCGTA, the binding signal (log2 normalized fluorescence) turned out to be 0.0224. With TGACGCAAAGTA, the binding signal (log2 normalized fluorescence) is -0.0251. Turning to TGACACGTGCAC, the binding signal (log2 normalized fluorescence) is 0.88.

As to TGACACGCCCTA, the binding signal (log2 normalized fluorescence) was 0.532. Regarding TGACGTTGCGTA, the binding signal (log2 normalized fluorescence) stood at 0.0681. TGAATGGAAGTA: the binding signal (log2 normalized fluorescence) stood at 0.124. On to TGATTCAAGGTA, for which the binding signal (log2 normalized fluorescence) is 0.0939. Regarding TGATTTCGAGTA, the binding signal (log2 normalized fluorescence) is -0.12. Then TGAGTAGCCGTA, with -0.168; and TGAAGAGACGTA, with 0.0477. As for TGAGGAGGGGTA, the binding signal (log2 normalized fluorescence) was 0.563.

With TGAATTCAAGTA, the binding signal (log2 normalized fluorescence) is -0.0366. As to TGAATGGGTGTA, the binding signal (log2 normalized fluorescence) was determined as 0.184. Then TGACTCCTGATA, with 0.0186; and TGAAAATTAGTA, with -0.172. Under TGACTACTCGTA stands 0.137. With TGACGGGGTGTA, the binding signal (log2 normalized fluorescence) is 0.469. Then TGAATTTGGGTA, with -0.119; and TGATGTACAGTA, with 0.152. As for TGACTGTCCGTA, the binding signal (log2 normalized fluorescence) amounted to 0.0679. As to TGATTTATTGTA, the binding signal (log2 normalized fluorescence) was -0.188. As for TGACGGTCAGTA, the binding signal (log2 normalized fluorescence) was -0.0768. With TGCAACGTGGTA, the binding signal (log2 normalized fluorescence) is 0.701. Take TGACAACCTGTA: the binding signal (log2 normalized fluorescence) stood at 0.243. Regarding TGACGTGTCGTA, the binding signal (log2 normalized fluorescence) came out at 0.274. Turning to TGAATGCCAGTA, the binding signal (log2 normalized fluorescence) turned out to be 0.189. Take TGAGCGCCGGTA: the binding signal (log2 normalized fluorescence) came out at 0.021.

Take TGACTCGTAGTG: the binding signal (log2 normalized fluorescence) was -0.0654.

With TGACCCCACGTA, the binding signal (log2 normalized fluorescence) stood at 0.193.

As to TGACACTTGCTG, the binding signal (log2 normalized fluorescence) turned out to be 0.248. In the case of TGACATTGGGTA, the binding signal (log2 normalized fluorescence) came out at 0.339. With TGAGTGTTAGTA, the binding signal (log2 normalized fluorescence) was determined as 0.177. Under TGACGCTAGGTA stands 0.0464. On to TGATGACTCGTA, for which the binding signal (log2 normalized fluorescence) is 0.153. As to TGACCCAACGTA, the binding signal (log2 normalized fluorescence) turned out to be 0.253. Under TGACACGTGTTG stands 0.83; under TGACACATGGAA, 0.739; under TGATTACTAGTA, -0.0547. Turning to CCTGTGCTGAGC, the binding signal (log2 normalized fluorescence) worked out at 0.268. On to TGACGAGGGGTA, for which the binding signal (log2 normalized fluorescence) was 0.262.

With TGAATGCGCGTA, the binding signal (log2 normalized fluorescence) was determined as 0.29. TGAAGCTCGGTA: the binding signal (log2 normalized fluorescence) was found to be 0.0311. Consider TGAGTCAGGGTA, for which the binding signal (log2 normalized fluorescence) was -0.143. On to TGAACCGTTGTA, for which the binding signal (log2 normalized fluorescence) came out at 0.0326. As to TGAATAGGCGTA, the binding signal (log2 normalized fluorescence) was -0.0708. For TGACCCCGAGTA, the binding signal (log2 normalized fluorescence) came to 0.209.

In the case of TGAAAGTGCGTA, the binding signal (log2 normalized fluorescence) worked out at 0.349.

Turning to TGACTTGGGGTA, the binding signal (log2 normalized fluorescence) was 0.0955.

Turning to TGAGTGCCCGTA, the binding signal (log2 normalized fluorescence) is 0.154. With TGACACGTGATC, the binding signal (log2 normalized fluorescence) is 0.744. For the sequence TGACACGTGTAA, the binding signal (log2 normalized fluorescence) is 0.708. Take TGATTCTCCGTA: the binding signal (log2 normalized fluorescence) is -0.172.

As to TGACTTAAAGTA, the binding signal (log2 normalized fluorescence) was found to be 0.0159. As to TGTCACGTGGAA, the binding signal (log2 normalized fluorescence) is 0.766. In the case of TGACACGAGGCG, the binding signal (log2 normalized fluorescence) stood at 0.566. For the sequence TGAGACGATGTA, the binding signal (log2 normalized fluorescence) is -0.0304.
